# Article PMC12136788
# This is one part of the list.
# T1: UNK ZnF1-3 (human, UniProt Q9C0B0 31-174)
# T1 sequence: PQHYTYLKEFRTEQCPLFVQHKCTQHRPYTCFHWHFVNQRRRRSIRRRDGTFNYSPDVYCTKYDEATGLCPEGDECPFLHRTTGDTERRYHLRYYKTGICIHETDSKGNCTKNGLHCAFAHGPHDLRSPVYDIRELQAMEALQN
# B1: chr2:48026839:48026840:+_ENSG00000116062_ENST00000540021|hu_hu|hu_hu_hu_mus_False|8_88 (ssRNA)
# RNA: GGGAGUUCUACAGUCCGACGAUCAUAGUGAGCCACUAGCGUCCUAAAUCUCGAACAGUGGCGGUCAUCCGAAAACUGGCCGAUGAAAAACUUGCCCAGUGAAGUGUCCACAAAGCAAACACCAUACGCACGAGUAUGACCAGACAACAGAGGAUUGAGCAUCA
# B2: chr8:121455507:121455508:-_ENSG00000172172_ENST00000306185|hu_hu|FALSE|FALSE (ssRNA)
# RNA: GGGAGUUCUACAGUCCGACGAUCUGAAGUCUUAUAGAUGCCAUAGCAGCAAGUUUGCCAGGUGGCUGCAUUUUCCCAUCUAAGAGAUACCAUAUUCUAGCAAAAGUGGCCCAUUGCUGGGGCGCCCUAGAGAAACUCGACAUACAACAGAGGAUUGAGCAUCA
# B3: chr2:120842415:120842416:+_ENSMUSG00000023572_ENSMUST00000060455|mus_hu|FALSE|FALSE (ssRNA)
# RNA: GGGAGUUCUACAGUCCGACGAUCAACCAACAAUCUUUGGUAAUAGUGUCUCUUGCUAAAUAUAGAUAGGCACUCCCUUUCAAUCCAGCAAGCAUUCUAGCUCCAUUUUAAAAGCAGGUAUCAGAGCCUGACCAUGACGAUGAGCAACAGAGGAUUGAGCAUCA
# B4: chr8:97196980:97196981:+_ENSMUSG00000031776_ENSMUST00000034228|mus_hu|FALSE|FALSE (ssRNA)
# RNA: GGGAGUUCUACAGUCCGACGAUCCCUAUUGGGCUGGUGACAUCCAGAAUGAUCCCAUUCAUUGGCUGGAGGUAGGACCUAGUGCCGCAGAUUGUUCUGGGAAGCUGGCAGAGAAGAUGAUUUGCACAAUGAAGUCACCACUAACAACAGAGGAUUGAGCAUCA
# B5: chr4:115894766:115894767:+_ENSMUSG00000028698_ENSMUST00000030464|mus_hu|mus_mus_mus_hu_True|8_8 (ssRNA)
# RNA: GGGAGUUCUACAGUCCGACGAUCUUCCACACGGAAAUGUACUUCGGGUUUUCCAACGGCCAGUACCAGUCCGGCCAAACUACCCGAACAGGGUCCUCCCCCUCUCUCCUACAGAACACAACAAAAUAACAAAAUACUUUCAAGCAACAGAGGAUUGAGCAUCA
# B6: chr4:144447494:144447495:+_ENSG00000153147_ENST00000283131|hu_hu|FALSE|FALSE (ssRNA)
# RNA: GGGAGUUCUACAGUCCGACGAUCCCAGUUGUGUAAUGUAGACUUAGGAACCAAAACCAUAUGAGGCCCAGGAAUGUUUCUAUAAUGUUUCAUGUACCCAAGAAGAGAAAUUGUUUGAAGAGUCUUUCCUAGGCCCAUUUCAUCCAACAGAGGAUUGAGCAUCA
# B7: chr6:117881578:117881579:-_ENSG00000047932_ENST00000052569|hu_mus|motif|central (ssRNA)
# RNA: GGGAGUUCUACAGUCCGACGAUCCUUUAAUGUAGAAUAUGUCAUUUUUAUUUACAGGCUAAUUAAGAAUAUGAAACUCAACGGGAUAUAAUACAAUUAUCAUAAAUCCCCUUAUAUGUAAAUUAAUAUAUUUUUUGUUUUAAACAACAGAGGAUUGAGCAUCA
# B8: chr7:40027299:40027300:+_ENSG00000065883_ENST00000340829|hu_hu|FALSE|FALSE (ssRNA)
# RNA: GGGAGUUCUACAGUCCGACGAUCAUUCUUGUUCAAUUCAGCUGCCAGGCUACUCUUCAGAGUUAGUGUGCUAGGAGAAAUACUAGAAUGACGACUUCUGGAUCUAGACAAUCUGUGCCUGCUACGAGAUCUUGAAUGCCUAGACAACAGAGGAUUGAGCAUCA
# B9: chr2:26245550:26245551:+_ENSMUSG00000026926_ENSMUST00000076431|mus_mus|FALSE|FALSE (ssRNA)
# RNA: GGGAGUUCUACAGUCCGACGAUCAUUGUCCAGAGUGGUAACUUUGGUUUCAAACUUUUCCUGUCCAUCAACUGUUGCAAAAAUAGGCUUGGGUACUCCAGGCAAGGGAGAAGAGAGGGGGAUGUUGGGGUAGGUGGCACCACUCAACAGAGGAUUGAGCAUCA
# B10: chr13:81889239:81889240:+_ENSMUSG00000051098_ENSMUST00000057598|mus_mus|motif|central (ssRNA)
# RNA: GGGAGUUCUACAGUCCGACGAUCCAUGGCAAAAGUAGACACUUUGUGGCAUAUCCCAGCUUUUGAAAUAUAGUUAGAAGCGGAGCGAAACAGCCUUUCGGCACCAAAGGUAUUGAAGUGCCCAGGAAGCACCUUCUCCACAAGCAACAGAGGAUUGAGCAUCA
# B11: chr4:134026413:134026414:+_ENSMUSG00000028832_ENSMUST00000130253|mus_mus|FALSE|FALSE (ssRNA)
# RNA: GGGAGUUCUACAGUCCGACGAUCUACAAAUCAAAAGAAAUCAAGUAACAUUUUUUUUUUAAAAAGCUUAACAUUUUGGACUAACAAAUACCAUCUUGAGGAAUUAGUACUUGACAGUCACUCCCUAGGAAACAAAGAAUGGUGCAACAGAGGAUUGAGCAUCA
# B12: chr14:76904430:76904431:+_ENSMUSG00000022010_ENSMUST00000022587|mus_mus|mus_mus_mus_hu_True|1_108 (ssRNA)
# RNA: GGGAGUUCUACAGUCCGACGAUCUGCUGGAAAAAAAACCCUCGUGGAAAAAAAGAGGGAACACCAGCAGCCUUGUAUAAGCUAGAUAAAAUCUUCUGGCUUUCCGCAGCCCAGGGAGAAACAGAAAACGGCAGCCCUCGAGUGCAACAGAGGAUUGAGCAUCA
# B13: chr22:32879901:32879902:+_ENSG00000100225_ENST00000397426|hu_mus|hu_hu_hu_mus_False|28_58 (ssRNA)
# RNA: GGGAGUUCUACAGUCCGACGAUCCUCUUCCAUACUCAUGGCAUCCUGAAUUGACUCAGCUUCAACAUUUUGACUAGGCCCUAACAUACUGUCAUCAGUCCAGGCAUCAGACUGGGCGGCCUGUCCUUGGGAUGAAUCAGUCCCCAACAGAGGAUUGAGCAUCA
# B14: chr5:128448638:128448639:+_ENSG00000066583_ENST00000173527|hu_mus|hu_hu_hu_mus_False|58_78 (ssRNA)
# RNA: GGGAGUUCUACAGUCCGACGAUCGGCACUCGCCUUAAUUAGGUUCUGAAUUUCCUUGAAUUUUGGAUGGUCUUUGUCAGCUACCAGCUGUAGGAGGACAGCCUCACUAGUGGUCACGAUGAUCCCAGUGCGGGCAAGACGCUCCAACAGAGGAUUGAGCAUCA
# B15: chr1:219384972:219384973:+_ENSG00000143353_ENST00000366928|hu_hu|motif|central (ssRNA)
# RNA: GGGAGUUCUACAGUCCGACGAUCCCAUAACUUCAAUAUGUCUAACUCAGUUUUGCUUAGCUCAUGGUAAACAUUUGGAAAACGGUGAAACUUCGUGGUCACUCCUAGAGAUUUUAACAUUGAGUUUGUCUCUUCUGCCCAAGACAACAGAGGAUUGAGCAUCA
# B16: chr16:32231720:32231721:-_ENSMUSG00000035764_ENSMUST00000042732|mus_hu|motif|central (ssRNA)
# RNA: GGGAGUUCUACAGUCCGACGAUCACAAUCUUAACUCCCAAGGAGCAAUCCAAGAAUCCCGGCCAGCUGCUGGGUGUCCCGGAUCAGAUUUAAAACAAAACAUACAUACAGCAAGAACUCAGAAGUACAAAGAUUUCGCUCGCUCAACAGAGGAUUGAGCAUCA
# B17: chr21:32491406:32491407:-_ENSG00000156299_ENST00000286827|hu_mus|motif|central (ssRNA)
# RNA: GGGAGUUCUACAGUCCGACGAUCAACCCUUCUUAAGGAAUGGACAUUGUGAAAUGGGGAGGAGGAGGGCGGAACAAAAAGCGGUAAACCUUUUUUUUUUUAAAAAUGAAAGUGCUAGAAUGGGUUUUGUUCUUCCUGUCUGGACAACAGAGGAUUGAGCAUCA
# B18: chr11:29608612:29608613:+_ENSMUSG00000020458_ENSMUST00000102843|mus_mus|motif|central (ssRNA)
# RNA: GGGAGUUCUACAGUCCGACGAUCUUGAGAUUCCAAAGCAGAAACAUUUGGAAGCAAUAAGGGCACCUUAGAUACACUGGACCGGCUUUUGGAGAAUUCAUCUGAGACAUGUGCUUCAUCUUUAGGAUAUGUAUUCUUGAAAGACAACAGAGGAUUGAGCAUCA
# B19: chr9:111175927:111175928:+_ENSMUSG00000046785_ENSMUST00000060711|mus_mus|motif|central (ssRNA)
# RNA: GGGAGUUCUACAGUCCGACGAUCUCUUACAGAAAUAGGCGCAUAUUCCGGUUUAAAGCUAAAUGGAUUUGAGAAAAGUUCGGAGUCCUUUUUAAUGAACCUGAGGUCCUUAAAAUGUCUCUCAAAAUCUUUCUGUAGGCGGGACAACAGAGGAUUGAGCAUCA
# B20: 420215_422326_3354_CDS_ENSG00000073614_ENST00000399788|human|control|control (ssRNA)
# RNA: GGGAGUUCUACAGUCCGACGAUCGUAAUUGCUGCCACUCUGAAUAGCUUCCACUUUAGCGGUCCAUUCUCGAGCCUUUUGUAAGGCUUCUUUCAAGGACAACACAUUGGGUAGAAAGGCUGGAAUGUUCUUGGCUUCAUUCACCAACAGAGGAUUGAGCAUCA
# B21: chr2:216981417:216981418:+_ENSG00000079246_ENST00000392132|hu_hu|hu_hu_hu_mus_True|8_8 (ssRNA)
# RNA: GGGAGUUCUACAGUCCGACGAUCCUGAUACUGGUCCUUGCCAGCAAGGGCAUUAUCAGUGCCAUCUGUGCCAUAGAGGACUAACGCAAUCUCAUCUUUGCUCUCCGAAAAUACCUGUCGUUGGACAAACAUGGUUAUCACUUUCAACAGAGGAUUGAGCAUCA
# B22: chr10:70021928:70021929:-_ENSMUSG00000037747_ENSMUST00000162251|mus_mus|FALSE|FALSE (ssRNA)
# RNA: GGGAGUUCUACAGUCCGACGAUCAUGCAUGCUUCAGUGGGGACAUCUGAUGGCAGAUGGACAACAGAGGGUAAUGCUCCUAUGGGAAGACAGGGUGUGUGGGGCGGGGAAGGGGCGAAAGUGGUGUUAGCGUCCGACACUGAUCAACAGAGGAUUGAGCAUCA
# Biological target: T1, UNK ZnF1-3
# Assay: nsRBNS (natural sequence RNA bind-n-seq); RBNS binding buffer (assumed for nsRBNS): 25 mM Tris pH 7.5, 150 mM KCl, 3 mM MgCl2, 0.01% Triton X-100, 500 ug/ml BSA, 20 U/ml SUPERase-In, 4 C; UNK is unkempt and MSI1 is Musashi-1; names of the RNAs are library labels; protein concentration not given here; high values mean tight binding
row,Binder,binding signal [enrichment R]
1,B1,1.14
2,B2,0.989
3,B3,1.06
4,B4,1.38
5,B5,0.964
6,B6,1.04
7,B7,2.66
8,B8,0.627
9,B9,1.33
10,B10,1.04
11,B11,1.4
12,B12,1.49
13,B13,1.24
14,B14,0.873
15,B15,0.982
16,B16,1.05
17,B17,2.3
18,B18,1.22
19,B19,1.15
20,B20,0.563
21,B21,0.606
22,B22,1.97
